Paper PMC12820563, “FoxP3 forms a head-to-head dimer in vivo and stabilizes its multimerization on adjacent microsatellites”
The other results are listed elsewhere or left out.

What follows are sequences tested against T1, MBP-FoxP1dN (Mus musculus, UniProt P58462 326-579) (assay: PD-seq (MBP pull-down with sequencing); 20 mM Tris-HCl pH 7.5, 100 mM NaCl, 1.5 mM MgCl2, 0.4 uM protein, 0.1 uM dsDNA library, 30 min, room temperature, amylose pull-down; high values mean tight binding). Settings: protein: recombinant; tags: His6-MBP; chain copies: 2; dsDNA, one strand shown.
T1 sequence: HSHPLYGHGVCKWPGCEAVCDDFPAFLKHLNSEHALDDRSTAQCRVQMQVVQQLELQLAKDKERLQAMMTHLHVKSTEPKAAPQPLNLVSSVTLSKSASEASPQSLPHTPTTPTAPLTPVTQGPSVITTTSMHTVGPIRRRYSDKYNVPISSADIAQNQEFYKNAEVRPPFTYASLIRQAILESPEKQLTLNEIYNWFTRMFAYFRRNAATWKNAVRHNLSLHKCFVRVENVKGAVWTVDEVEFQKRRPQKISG
Method in brief: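 Binding is given as reads-per-million enrichment, pull-down over input, with replicates pooled. The bait was an N-terminus-lacking mouse FoxP3 or FoxP1 fragment with a His6-MBP tag, expressed in E. coli and used at 0.4 µM with 0.1 µM Klenow-filled degenerate double-stranded DNA library for 30 min at room temperature in Tris pH 7.5 buffer with NaCl and MgCl2. Amylose resin pull-down with three washes was followed by proteinase K release, PCR barcoding and Illumina sequencing.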

Sequence	binding signal
GATGATTGTTCTCCCAGCTGATGAATTGCCATAATCGAGTAAACAAATTTTCCTAATCTTTCTGTTCAAGCGCCATCTAC	1.28 RPM ratio (pull-down/input)
GATGATTGTTCTCCCAGCTGATGAATTTAGATCGTCGAGTAAACAAATTTTCCTAATCTTTCTGTTCAAGCGCCATCTAC	0.981 RPM ratio (pull-down/input)
GATGATTGTTCTCCCAGCTGATGAATTGGACTTTTCGAGTAAACAAATTTTCCTAATCTTTCTGTTCAAGCGCCATCTAC	0.913 RPM ratio (pull-down/input)
GATGATTGTTCTCCCAGCTGATGAATTATCTCTTTCGAGTAAACAAATTTTCCTAATCTTTCTGTTCAAGCGCCATCTAC	1.08 RPM ratio (pull-down/input)
GATGATTGTTCTCCCAGCTGATGAATTAATACTTTCGAGTAAACAAATTTTCCTAATCTTTCTGTTCAAGCGCCATCTAC	1 RPM ratio (pull-down/input)
GATGATTGTTCTCCCAGCTGATGAATTGCTTCTTTCGAGTAAACAAATTTTCCTAATCTTTCTGTTCAAGCGCCATCTAC	1.09 RPM ratio (pull-down/input)
GATGATTGTTCTCCCAGCTGATGAATTTGCAGTATCGAGTAAACAAATTTTCCTAATCTTTCTGTTCAAGCGCCATCTAC	1.06 RPM ratio (pull-down/input)
GATGATTGTTCTCCCAGCTGATGAATTCAGGCTCTCGAGTAAACAAATTTTCCTAATCTTTCTGTTCAAGCGCCATCTAC	0.846 RPM ratio (pull-down/input)
GATGATTGTTCTCCCAGCTGATGAATTGAAGTGGTCGAGTAAACAAATTTTCCTAATCTTTCTGTTCAAGCGCCATCTAC	0.851 RPM ratio (pull-down/input)
GATGATTGTTCTCCCAGCTGATGAATTCAAGACATCGAGTAAACAAATTTTCCTAATCTTTCTGTTCAAGCGCCATCTAC	0.969 RPM ratio (pull-down/input)
GATGATTGTTCTCCCAGCTGATGAATTCGTGCAATCGAGTAAACAAATTTTCCTAATCTTTCTGTTCAAGCGCCATCTAC	1.17 RPM ratio (pull-down/input)
GATGATTGTTCTCCCAGCTGATGAATTACAATGTTCGAGTAAACAAATTTTCCTAATCTTTCTGTTCAAGCGCCATCTAC	1.4 RPM ratio (pull-down/input)
GATGATTGTTCTCCCAGCTGATGAATTCCCATCTTCGAGTAAACAAATTTTCCTAATCTTTCTGTTCAAGCGCCATCTAC	0.81 RPM ratio (pull-down/input)
GATGATTGTTCTCCCAGCTGATGAATTTTTTTGCTCGAGTAAACAAATTTTCCTAATCTTTCTGTTCAAGCGCCATCTAC	0.948 RPM ratio (pull-down/input)
GATGATTGTTCTCCCAGCTGATGAATTACGGTACTCGAGTAAACAAATTTTCCTAATCTTTCTGTTCAAGCGCCATCTAC	0.94 RPM ratio (pull-down/input)
GATGATTGTTCTCCCAGCTGATGAATTCTGGGGATCGAGTAAACAAATTTTCCTAATCTTTCTGTTCAAGCGCCATCTAC	0.833 RPM ratio (pull-down/input)
GATGATTGTTCTCCCAGCTGATGAATTCTGAGTTTCGAGTAAACAAATTTTCCTAATCTTTCTGTTCAAGCGCCATCTAC	0.869 RPM ratio (pull-down/input)
GATGATTGTTCTCCCAGCTGATGAATTTTCCGTCTCGAGTAAACAAATTTTCCTAATCTTTCTGTTCAAGCGCCATCTAC	0.878 RPM ratio (pull-down/input)
GATGATTGTTCTCCCAGCTGATGAATTTTACGGCTCGAGTAAACAAATTTTCCTAATCTTTCTGTTCAAGCGCCATCTAC	0.833 RPM ratio (pull-down/input)
GATGATTGTTCTCCCAGCTGATGAATTTAAGAATTCGAGTAAACAAATTTTCCTAATCTTTCTGTTCAAGCGCCATCTAC	0.81 RPM ratio (pull-down/input)

Sequence	binding signal
GATGATTGTTCTCCCAGCTGATGAATTATCATTTTCGAGTAAACAAATTTTCCTAATCTTTCTGTTCAAGCGCCATCTAC	1.32 RPM ratio (pull-down/input)
GATGATTGTTCTCCCAGCTGATGAATTCCATGGGTCGAGTAAACAAATTTTCCTAATCTTTCTGTTCAAGCGCCATCTAC	0.733 RPM ratio (pull-down/input)
GATGATTGTTCTCCCAGCTGATGAATTACAGGCGTCGAGTAAACAAATTTTCCTAATCTTTCTGTTCAAGCGCCATCTAC	1 RPM ratio (pull-down/input)
GATGATTGTTCTCCCAGCTGATGAATTAAATGTATCGAGTAAACAAATTTTCCTAATCTTTCTGTTCAAGCGCCATCTAC	1.4 RPM ratio (pull-down/input)
GATGATTGTTCTCCCAGCTGATGAATTAAAATATTCGAGTAAACAAATTTTCCTAATCTTTCTGTTCAAGCGCCATCTAC	1.1 RPM ratio (pull-down/input)
GATGATTGTTCTCCCAGCTGATGAATTTAAAACATCGAGTAAACAAATTTTCCTAATCTTTCTGTTCAAGCGCCATCTAC	1.37 RPM ratio (pull-down/input)
GATGATTGTTCTCCCAGCTGATGAATTTCCGTCTTCGAGTAAACAAATTTTCCTAATCTTTCTGTTCAAGCGCCATCTAC	0.917 RPM ratio (pull-down/input)
GATGATTGTTCTCCCAGCTGATGAATTGCACTTTTCGAGTAAACAAATTTTCCTAATCTTTCTGTTCAAGCGCCATCTAC	1.55 RPM ratio (pull-down/input)
GATGATTGTTCTCCCAGCTGATGAATTTTACAGTTCGAGTAAACAAATTTTCCTAATCTTTCTGTTCAAGCGCCATCTAC	0.94 RPM ratio (pull-down/input)
GATGATTGTTCTCCCAGCTGATGAATTTAATCTATCGAGTAAACAAATTTTCCTAATCTTTCTGTTCAAGCGCCATCTAC	0.877 RPM ratio (pull-down/input)
GATGATTGTTCTCCCAGCTGATGAATTACCCCTTTCGAGTAAACAAATTTTCCTAATCTTTCTGTTCAAGCGCCATCTAC	0.932 RPM ratio (pull-down/input)
GATGATTGTTCTCCCAGCTGATGAATTTGACTTATCGAGTAAACAAATTTTCCTAATCTTTCTGTTCAAGCGCCATCTAC	0.908 RPM ratio (pull-down/input)
GATGATTGTTCTCCCAGCTGATGAATTATCACGGTCGAGTAAACAAATTTTCCTAATCTTTCTGTTCAAGCGCCATCTAC	0.984 RPM ratio (pull-down/input)
GATGATTGTTCTCCCAGCTGATGAATTGATGAACTCGAGTAAACAAATTTTCCTAATCTTTCTGTTCAAGCGCCATCTAC	0.906 RPM ratio (pull-down/input)
GATGATTGTTCTCCCAGCTGATGAATTTCTGGTTTCGAGTAAACAAATTTTCCTAATCTTTCTGTTCAAGCGCCATCTAC	0.937 RPM ratio (pull-down/input)
GATGATTGTTCTCCCAGCTGATGAATTGCATCTTTCGAGTAAACAAATTTTCCTAATCTTTCTGTTCAAGCGCCATCTAC	1.83 RPM ratio (pull-down/input)
GATGATTGTTCTCCCAGCTGATGAATTAAATTTCTCGAGTAAACAAATTTTCCTAATCTTTCTGTTCAAGCGCCATCTAC	0.864 RPM ratio (pull-down/input)
GATGATTGTTCTCCCAGCTGATGAATTGTACGTATCGAGTAAACAAATTTTCCTAATCTTTCTGTTCAAGCGCCATCTAC	1.14 RPM ratio (pull-down/input)
GATGATTGTTCTCCCAGCTGATGAATTGCATTAATCGAGTAAACAAATTTTCCTAATCTTTCTGTTCAAGCGCCATCTAC	1.47 RPM ratio (pull-down/input)
GATGATTGTTCTCCCAGCTGATGAATTTCACAACTCGAGTAAACAAATTTTCCTAATCTTTCTGTTCAAGCGCCATCTAC	0.936 RPM ratio (pull-down/input)
